Among all 46,000 compounds or so, about 60 (0.1%) were called active. About 3% were inconclusive and are not listed. Calls follow the shape of the dose curve; as a rule, active = well fitted inhibition curve with a large enough effect; inconclusive = small, poorly fitted or top-dose-only effect; inactive = no such curve, though single readings can be large or run the other way. This is one part of the list.
assay: Primary qHTS assay for Inhibitors of ovarian cancer metastasis using an organotypic tumor microenvironment (TME) model.; also: nearly all actives have a fitted effect of over 65% in size;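 as to activity change, negative = inhibition: plate controls were DMSO wells for no effect and tomatine positive control wells for full effect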; conditions: SKOV3ip1-GFP adhesion/invasion on 3D omental model, fluorescence; series mostly up to 45.8 µM; activity change, negative = inhibition: at the top concentration
In short: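 Primary human omental fibroblast/mesothelial 3D culture pre-formed 48 h. SKOV3ip1-GFP cells added with compounds (0.36-46 umol/L), incubated 2 h RT/16 h 37 C, fixed; GFP cells quantified at 488/509 nm.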

outcome, inactive:
O=C1CCc2cc(S(=O)(=O)NCc3ccccc3Cl)cc3c2N1CC3
Cc1cc(C)cc(OCc2cc(=O)n3c(-c4ccccc4)csc3n2)c1
CCn1nc(C)c2c(-c3ccccc3)cc(=O)n(C(C)C(=O)NCc3ccccc3OC)c21 (stereo unspecified)
CCn1cc(C(=O)NCCc2ccc(OC)c(OC)c2)c(=O)c2cc(S(=O)(=O)N(C)C3CCCCC3)ccc21
COc1ccc2cc3c(N)nn(C(=O)c4ccccc4Cl)c3nc2c1
COc1ccc(Cl)cc1NC(=O)Cn1ccn(-c2cc(C)cc(C)c2)c(=O)c1=O
CCc1ccc(CNC(=O)Cn2nc(-c3ccc(C)cc3)ccc2=O)cc1
Fc1ccc(-n2ncc3c(Nc4ccc5c(c4)OCCO5)ncnc32)cc1
Cc1ccc(N2CCN(C(=O)c3cc4cc5ccc(C)cc5nc4s3)CC2C)cc1 (stereo unspecified)
COc1ccc(-c2noc(CSc3nnc(C)n3-c3cccc(C)c3)n2)cc1
CNC(=O)c1ccc2c(c1)N(Cc1cc(C)ccc1C)C(=O)c1ccccc1S2
CCCN1CCN(C(=O)Cn2c(-c3cccs3)cc3cc(F)ccc32)CC1
COc1ccc(CNC(=O)c2ccc(-c3nc(CSc4ccc(C)cc4)c(C)o3)cc2)c(OC)c1
COc1ccc(OC)c(S(=O)(=O)NCCS(=O)(=O)N2CCN(c3ccccc3)CC2)c1
Cc1nc(-c2ccccc2)sc1-c1ccc(SCC(=O)NCc2ccccc2Cl)nn1
CCc1ccccc1NC(=O)N1CCCn2nc(C)cc21
CCCOc1ccc(C2c3c(-c4c(C)cc(C)cc4O)n[nH]c3C(=O)N2CCO)cc1 (stereo unspecified)
Cc1ccc(Cl)cc1NC(=O)Nc1cccc(OCc2cc(=O)n3ccccc3n2)c1
CC(C)N(CCCNC(=O)Cn1ncc2c([nH]c3ccccc32)c1=O)Cc1ccccc1
COc1ccc(-c2nc(CS(=O)(=O)CC(=O)NCCc3ccc(C)cc3)c(C)o2)cc1
Cc1cc2nc(-c3ccc(NC(=O)c4ccccc4F)cc3)oc2cc1C
Nc1ncc(S(=O)(=O)Nc2ccc(F)cc2F)cn1
Cc1cccc(C(=O)Nc2ccc3nc(SCCOc4ccccc4)sc3c2)c1
COC(=O)c1ccccc1NC(=O)Cn1c(=O)cc(C)c2c(C)nn(C)c21

Activity change, negative = inhibition, inactive:
CCN(CC)S(=O)(=O)c1ccc(C(=O)Nc2nc3ccc(Cl)cc3s2)cc1 -1.85%
COc1cc(OC)cc(-c2nc3nc(C)c(CCC(=O)Nc4ccc(C)cc4C)c(C)n3n2)c1 -3.82%
COc1ccccc1NC(=O)Cn1c(=O)c(CNc2ccccc2)cc2cc(OC)c(OC)cc21 8.08%
Cc1cccc(CNC(=O)c2ccc3c(c2)c(C)c(C)n3Cc2ccccc2)c1 -8.94%
COc1ccccc1C1C=C(c2ccc(C(C)C)cc2)Nc2nnnn21 (stereo unspecified) 4.68%
CSc1ncc(Cl)c(C(=O)N(Cc2ccc(C)cc2)C2CCS(=O)(=O)C2)n1 (stereo unspecified) -7.73%
Fc1ccc(-n2ncc3c(Nc4cccc(Cl)c4)ncnc32)cc1 -18.6%
O=C(c1cnn(-c2ccc(F)cc2)c1-n1cccc1)N1CCN(c2ccc(Cl)cc2)CC1 5.39%
Cc1ccc(S(=O)(=O)c2nnn3c2nc(NCc2cccs2)c2sccc23)cc1 3.49%
O=C(CCn1ccc2cc(S(=O)(=O)N3CCCC3)ccc21)NCc1ccccc1F 0.555%
COc1cccc(NC(=O)Cn2cc(S(=O)(=O)Cc3ccccc3F)c3ccccc32)c1 -5.23%
CCc1ccc(NC(=O)CN2C(=O)CSc3ccc(S(=O)(=O)N(C)C)cc32)cc1 32.8%
Cc1ccc(C)c(NC(=O)Cn2cc(S(=O)(=O)Cc3cccc(Cl)c3)c3ccccc32)c1 9.52%
Cc1cc(OC(C)C(=O)N(Cc2ccc(N(C)C)cc2)Cc2ccco2)ccc1Cl (stereo unspecified) 3.17%
Cc1ccccc1C(=O)Nc1cccc(OCc2cc(=O)n3cccc(C)c3n2)c1 2.02%
CCOc1ccc(NC(=O)N2CCN(c3ccc(Cl)c(Cl)c3)CC2)cc1 -24.5%
COc1ccc(-c2noc(CN(C(=O)C(C)Oc3ccc(C)cc3)C(C)C)n2)cc1 (stereo unspecified) 16.8%
O=C(NCc1ccccc1)c1ccc2c(c1)CCN2S(=O)(=O)c1ccc(Cl)cc1 8.45%
Cn1nnc2c(N3CCN(c4ccc(F)cc4)CC3)ncnc21 -14.6%
Cc1ccccc1CNC(=O)CCS(=O)(=O)c1cc2c3c(c1)CCN3C(=O)CC2 6.56%
CCOc1cccc(CNC(=O)c2ccc(N3CCCC3)c(NC(=O)NCc3ccccc3)c2)c1 8.53%
CC(C)Oc1ccc(C(=O)N(Cc2ccc(N(C)C)cc2)C2CCS(=O)(=O)C2)cc1 (stereo unspecified) 1.51%
CCc1ccc(NCc2cc3ccc(OC)cc3n(CC(=O)Nc3c(C)cc(C)cc3C)c2=O)cc1 -1.02%
COc1ccccc1N1CCN(C(=O)CCS(=O)(=O)c2ccc3c(c2)oc(=O)n3C)CC1 0.694%
Cc1ccc(Nc2sc(C(=O)c3ccccc3)c(N)c2S(=O)(=O)c2ccccc2)cc1Cl -1.11%
COc1ccccc1NC(=O)c1oc2ccccc2c1NC(=O)Cc1ccccc1 -14.1%
CCOC(=O)c1nc(Nc2ccc(C(=O)OC(C)C)cc2)c2ccccc2n1 -10.8%
COc1ccc(O)c(C2=Nc3ccccc3N=C(c3ccccc3)C2)c1 -5.73%
COc1cc(C(=O)NCCc2csc(-c3ccc(Cl)cc3)n2)cc(OC)c1OC 2.63%
O=C(CN1C(=O)CC(c2ccccc2)=Nc2ccccc21)Nc1ccc(Br)cc1 -5.51%
O=C(NCCc1ccccc1)c1ccc(Nc2nc3ccccc3n3nnnc23)cc1 -9.84%
Cc1ccc2c(c1)N(C(=O)Nc1cccc3c1CCCC3)CCO2 -2.17%
Cc1cccc(CCNC(=O)c2cc3c(s2)-c2c(C)cccc2OC3)c1 -16.6%
CCOC(=O)c1c(NC(=O)CSc2cn(CCNC(=O)c3ccc(OC)cc3)c3ccccc23)sc2c1CCCC2 -4.44%
COc1ccc(C2c3c(n(C)c4ccccc34)C(=O)N2CC(=O)Nc2cccc(Cl)c2)cc1 (stereo unspecified) -7.3%
COc1cccc(CNC(=O)c2cccc(-n3c(C)nc4cccnc43)c2)c1OC 8.94%
Cc1cc(=O)n(Cc2ccc(Cl)cc2)c2c1c(C)nn2-c1ccccc1 1.47%
O=C(Cn1c(=O)n(-c2ccccc2)c(=O)c2c3c(sc21)CCCC3)Nc1ccc(F)cc1F -0.923%
Cc1ccc(C)c(NC(=O)C2CCCN(c3ncnc4onc(C)c34)C2)c1 (stereo unspecified) -4.06%
N#Cc1nc(-c2ccc(COc3ccc(Cl)cc3)o2)oc1N1CCC(C(N)=O)CC1 -3.07%
O=C(CSc1cn(CC(=O)N2CCCCC2)c2ccccc12)Nc1ccccc1 -3.85%
COc1ccc(OC)c(C2=NS(=O)(=O)N(C)C(C(=O)Nc3ccc(F)cc3F)=C2)c1 2.76%
CC1CCN(c2nn3c(=O)c(C(=O)NC(C)C)cnc3s2)CC1 3.85%
O=C(NCC(c1ccco1)S(=O)(=O)c1cccs1)c1ccc(F)c(F)c1 (stereo unspecified) 6.38%
O=C(NCc1noc2ccccc12)N1CCN(c2ccccc2)CC1 1.47%
O=C(Cn1c(=O)n(Cc2ccccc2)c(=O)c2sc3ccccc3c21)Nc1ccccc1 -6.92%
CCN1CCOC(=O)C1CC(=O)Nc1ccc(Br)cc1 (stereo unspecified) -2.29%
Cc1ccc(Cl)cc1NC(=O)c1sc(-n2nc(C)c(Cc3ccc4c(c3)OCO4)c2C)nc1C -4.86%
CCOc1ccc(-c2cc3nc(C4CCN(C(=O)OC(C)(C)C)CC4)c(C(=O)Nc4cc(OC)ccc4OC)cn3n2)cc1 -3.41%
Cc1nn(C)c2c1c(-c1ccccc1)cc(=O)n2CC(=O)NC(C)c1ccccc1 (stereo unspecified) 19.7%
COc1ccc(-n2c(-c3ccco3)nc3c(cnn3-c3ccccc3Cl)c2=O)cc1 51.2%
CCCCCn1c(CN2CCN(c3ccc(OC)cc3)CC2)nc2c1c(=O)[nH]c(=O)n2C 15.4%
Cc1ccc(Nc2nnc(-c3ccc(C)c(S(=O)(=O)N4CCOCC4)c3)c3ccccc23)cc1 -2.35%
Cc1cc(C)c2c(=O)cc(C(=O)Nc3sc4c(c3C(=O)NCC3CCCO3)CCCC4)oc2c1 (stereo unspecified) -24.7%
COCCNC(=O)c1ccc2nc(Cc3ccccc3)oc2c1 17.1%
Cc1cc(=O)n(Cc2ccccc2)c2c1c(C)nn2C -6.25%
COc1ccc(C)cc1NC(=O)CC1NCCNC1=O (stereo unspecified) 3.64%
CCOC(=O)c1ccc(NC(=O)CSc2nc3ccccc3c(=O)n2CCC(=O)NC2CCCCC2)cc1 -3.14%
CC(=O)c1ccc(N2CCN(c3ccc4cc(S(=O)(=O)N5CCCCC5)ccc4n3)CC2)cc1 9.37%
CCC(=O)C1=C(c2ccc(OC)c(OC)c2)N(C(=O)CC)n2c(nnc2-c2ccc(C)cc2)S1 5.98%
CC(=O)c1cc(-c2ccccc2)n(CC(=O)Nc2ccc(C)c(C)c2)c1C -6.25%
COc1ccc(OC)c(CNS(=O)(=O)c2ccc(-c3coc(C)n3)cc2)c1 -1.79%
COc1ccccc1-c1noc(-c2ccc(NC3CCCC3)c([N+](=O)[O-])c2)n1 56.6%
COc1ccccc1-c1nc(SCC(=O)NCc2ccccc2)c2c(=O)n(C)c(=O)n(C)c2n1 0.328%
CCOc1ccc(CNC(=O)CS(=O)(=O)c2cccc3nsnc23)cc1 -8.6%
Nc1c(C(=O)Nc2cccc(F)c2)c2ccccn2c1C(=O)c1ccccc1 0.159%
CCc1cnc2c(c1SCC(=O)NCc1ccc(F)cc1)c(=O)n(C)c(=O)n2C 4.25%
COc1ccc(C2C=C(c3ccccc3)Nc3nc(NC(=O)/C=C/c4ccccc4Cl)nn32)cc1 (stereo unspecified) -30.1%
COc1ccc(CCNc2nc(SCc3ccc(Cl)cc3)nc3ccccc23)cc1OC -1.8%
Cc1ccc(C)c(Cn2c(C(=O)O)c(CNCc3cccs3)c3ccccc32)c1 -6.16%
COc1ccc(NC(=O)CN2C(=O)COc3ccc(S(=O)(=O)N4CCCCC4)cc32)cc1OC 15.1%
CCCCC(=O)N1CCc2cc(OC)c(OC)cc2C1COc1ccc(OC)cc1 (stereo unspecified) -0.239%
